In PubChem BioAssay AID1240 (Sanford-Burnham Center for Chemical Genomics, 2008):
The whole screen tested about 50,000 compounds, of which about 800 (1.6%) showed an effect of 50% or more. This is one part of the list.

molecular target: Bcl-2-like protein 10 (Homo sapiens) (UniProt Q9HD36); test: TR3 peptide-Bcl-B binding displacers, biochemical primary FP assay, phenotype converters (AID 1240); details: GST-Bcl-B / FITC-TR3 peptide fluorescence polarization; stronger effect = higher value; compound at 3.75 mg/L;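 also: 0% = Bcl-B with tracer peptide and DMSO and 100% = tracer peptide lacking Bcl-B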
Chain of UniProt Q9HD36 (Q9HD36 whole entry, looked up): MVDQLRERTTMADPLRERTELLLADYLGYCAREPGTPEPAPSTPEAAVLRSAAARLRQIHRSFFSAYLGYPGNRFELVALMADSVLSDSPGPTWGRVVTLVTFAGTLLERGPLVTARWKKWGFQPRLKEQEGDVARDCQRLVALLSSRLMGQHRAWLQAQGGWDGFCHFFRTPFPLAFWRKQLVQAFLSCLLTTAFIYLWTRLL

| SMILES | displacement [%] |
| --- | --- |
| COc1ccc(NC(=O)CN(Cc2ccccc2)S(=O)(=O)c2ccccc2)cc1Cl | 11.3 |
| Clc1ccc(-c2nc3ccccc3[nH]2)c(Cl)c1 | -0.9 |
| CCCC(=O)c1ccc(N2CCN(C(=O)c3ccc(F)cc3)CC2)c(F)c1 | -7.8 |
| Cc1cc(C)c(S(=O)(=O)N(C)C2CCCCC2)c(C)c1 | -11.3 |
| C=CCn1c(NCCO)nc2sc3c(c2c1=O)CCC3 | 2.1 |
| COc1ccc2c(c1)CCC/C2=N\OC(=O)c1ccccc1F | 11.2 |
| COc1cc(C(=O)N2CCN(Cc3ccccc3C(F)(F)F)CC2)cc(OC)c1OC | 11.5 |
| CC(=O)/C(C(=N)N1CCN(c2ccccc2)CC1)=C(\C)O | -11.5 |
| O=C(O)C1CN(S(=O)(=O)c2ccccc2)CCN1S(=O)(=O)c1ccccc1 (centres undefined) | 11.4 |
| O=C(/C=C/c1ccc(OCc2ccccc2)cc1)c1cccs1 | 12.8 |
| CC(C)(C)NC(=O)C1CN(S(=O)(=O)c2ccccc2)CCN1S(=O)(=O)c1ccccc1 (centres undefined) | -1.3 |
| O=C(C1=C(O)C(=O)N(c2ncc(S(=O)(=O)c3ccc([N+](=O)[O-])cc3)s2)C1c1ccc(F)cc1)c1ccco1 (centres undefined) | 13.1 |
| C/C(=C\C(=O)c1ccc(Br)cc1)Nc1ccccc1O | 13.1 |
| CCOC(=O)C1=C(C)N=c2s/c(=C3\C(=O)N(CC(N)=O)c4ccccc43)c(=O)n2C1c1ccccc1 (centres undefined) | 6.6 |
| CC(C)CNC(=O)c1cc(-c2ccco2)nc2ccccc12 | -0.9 |
| CC(=O)c1ccc(NC(=O)c2ccc(N3C(=O)c4ccccc4C3=O)cc2)cc1 | 11.8 |
| CSc1ccc(S(=O)(=O)NCc2ccccc2C)cc1 | 16.3 |
| CC(=O)N1c2ccc(NC(=O)C(F)(F)F)cc2C(C)(c2ccccc2)CC1(C)C (centres undefined) | 3 |
| CC(=O)c1ccc(-c2ccc([N+](=O)[O-])cc2)s1 | 5.2 |
| CCOc1cc(/C=C2\C(=O)NC(=O)N(c3cc(C)cc(C)c3)C2=O)c(Br)cc1O | -7.2 |
| CCCc1nc2ccccc2n1CC(O)COc1ccc([N+](=O)[O-])cc1 (centres undefined) | -8 |
| COc1ccc(CC(=O)N(c2ccccc2)c2ccccc2)cc1OC | 0.5 |
| Cc1ccc(C(=O)NCCN(C)C)cc1 | 8 |

| SMILES | displacement [%] |
| --- | --- |
| COc1cc(/C=c2/sc3nc4ccccc4n3c2=O)cc(I)c1OCc1ccccc1 | 74.2 |
| O=C(CSc1nnc(-c2sc3ccccc3c2Cl)n1-c1ccccc1)c1ccc(F)cc1 | 7.2 |
| CSc1ccc(CN2CCN(S(C)(=O)=O)CC2)cc1 | 13.6 |
| COc1ccc(C(=O)O/N=C(\N)c2cccc([N+](=O)[O-])c2)cc1OC | -10 |
| O=C(COc1ccc(Cl)cc1)N1CCN(c2ccccn2)CC1 | 9.2 |
| COC(=O)c1ccc(/C=C2\SC(=Nc3ccc(Br)cc3)NC2=O)cc1 | 2.4 |
| O=C(Nc1ccc(F)cc1)Nc1cccc(NC(=O)Nc2ccc(F)cc2)c1 | 0.6 |
| Cc1ccc(NC(=O)C2COc3ccccc3O2)c(Br)c1 (centres undefined) | -3.3 |
| CCS(=O)(=O)c1ccc(O)c(NC(=O)c2cc(OC)c(OC)c(OC)c2)c1 | 16.9 |
| c1ccc(C2=Nc3ccccc3NC(c3ccccc3)C2)cc1 (centres undefined) | -26.7 |
| CC(C)c1cc(C(C)C)c(S(=O)(=O)Nc2ccc(S(N)(=O)=O)cc2)c(C(C)C)c1 | -2 |
| CC(C)NC(=O)C12CC3(C)CC(C)(CC(C)(C3)C1)C2 | 7.6 |
| Cc1nn(C(=O)c2ccccc2)c(C)c1Cl | 1.8 |
| CC(=O)NC12CC3CC(CC(CCC(=O)O)(C3)C1)C2 | 7.1 |
| CC(C)c1ccc(/C=C/C(=O)Nc2ccc(C(N)=O)cc2)cc1 | -12.8 |
| COc1ccccc1NC(=O)c1cc2cc(Br)ccc2oc1=O | -28.1 |
| O=C(NCc1ccccc1)c1ccc(OC2CSC2)cc1 | -53.6 |
| COc1cc(/C=C2\SC(=S)N(NC(=O)c3ccccc3)C2=O)cc(OC)c1OC | 2.9 |
| O=C(NNC(=O)c1ccco1)Nc1ccc(Cl)c(Cl)c1 | 13.8 |
| COc1cc(C(=O)Nc2nc3ccc(Br)cc3s2)cc(OC)c1OC | 0.6 |
| CCC1=NN2C(=N)/C(=C/c3ccc(-c4cccc([N+](=O)[O-])c4)o3)C(=O)N=C2S1 | 124 |
| O=[N+]([O-])c1cccc(C2=Nc3ccc([N+](=O)[O-])cc3ON2)c1 | -0.9 |
| Cc1ccc(CC2CC(=O)N(CCc3ccc4c(c3)OCO4)C2=O)cc1 (centres undefined) | 9.9 |

| SMILES | displacement [%] |
| --- | --- |
| CN(C)c1ccc(-c2nc3cc(NC(=O)c4cc5ccccc5o4)ccc3o2)cc1 | 15.9 |
| CCOc1ccc(N(CC(=O)Nc2cccc(C)c2)S(C)(=O)=O)cc1 | 0.1 |
| NS(=O)(=O)c1cccc(NC(=O)c2ccc(-c3cccc(Cl)c3)o2)c1 | -9.6 |
| COc1ccc(CSCC(=O)NC2CCCCC2)cc1 | 0.4 |
| COc1ccc2c(c1)C(C)=CC(C)(C)N2S(=O)(=O)c1ccc(NC(C)=O)cc1 | 1.8 |
| Cc1nc2c(C)c(-c3ccccc3)[nH]n2c(=O)c1Cl | 6.8 |
| Cn1c(=O)c2c(nc(NCC(O)c3ccccc3)n2C)n(C)c1=O (centres undefined) | -7.1 |
| O=C(Nc1cccc(Br)c1)c1ccc(Cl)c([N+](=O)[O-])c1 | 14.1 |
| Nc1ccc(C2=Nc3cccc4cccc(c34)N2)cc1 | 16.2 |
| COc1cccc(N2C(=O)CSC2=S)c1 | 18 |
| COc1ccc(OC)c(N2C(=O)NC(=O)C(=Cc3cccs3)C2=O)c1 | 9.1 |
| O=[N+]([O-])c1ccc(N2CCN(S(=O)(=O)c3ccccc3)CC2)cc1N1CCOCC1 | 10.5 |
| C=CCN1C(=O)CS/C1=N\N=C\c1cccc([N+](=O)[O-])c1 | 16.1 |
| O=C(CC1CCC1)Nc1ccc2c(c1)oc1ccccc12 | -17.7 |
| COc1ccc(/C=C/C(=O)c2ccc(I)cc2)cc1 | -7.2 |
| O=C(/C=C/c1cccc([N+](=O)[O-])c1)NCCC12CC3CC(CC(C3)C1)C2 | 15.6 |
| c1ccc(Nc2ccc3ccccc3n2)nc1 | -0.5 |
| CC1=NN(c2ccc(S(N)(=O)=O)cc2)C(=O)/C1=C\c1ccc(-c2ccc(Br)cc2)o1 | -2.7 |
| Cc1ccc2c(Cl)c(C(=O)N3CCN(c4ccc(F)cc4)CC3)sc2c1 | 3.7 |
| CSC(=N)/C(C#N)=N/Nc1ccccc1 | 22.5 |
| CCN(CC)S(=O)(=O)c1ccc(NC(=O)COc2ccccc2)cc1 | 12.3 |
| COc1ccc(OC)c(/C=C2/C(=O)NN(c3ccc(C)cc3)C2=O)c1 | 8.5 |
| CCOC(=O)c1c(C)nc2ccc(OC(F)(F)F)cc2c1-c1ccccc1 | 9.9 |
